Source: publication PMC6919601, “Identification of Plasmodium dipeptidyl aminopeptidase allosteric inhibitors by high throughput screening” (PLoS ONE, 2019)
Where “and” joins values, the source holds several entries; their conditions need not be identical. Identical values can stand only once. The whole screen tested about 110,000 compounds, of which about 230 (0.21%) showed an effect of 50% or more. Some of the results follow.

What follows are compounds tested against DPAP1 (Plasmodium falciparum, UniProt Q8IIJ9) (assay: primary screen, percent inhibition; read by cleavage of a fluorogenic dipeptide substrate; higher = more effect of the substance).
DPAP1, sequence (Q8IIJ9 whole entry, looked up): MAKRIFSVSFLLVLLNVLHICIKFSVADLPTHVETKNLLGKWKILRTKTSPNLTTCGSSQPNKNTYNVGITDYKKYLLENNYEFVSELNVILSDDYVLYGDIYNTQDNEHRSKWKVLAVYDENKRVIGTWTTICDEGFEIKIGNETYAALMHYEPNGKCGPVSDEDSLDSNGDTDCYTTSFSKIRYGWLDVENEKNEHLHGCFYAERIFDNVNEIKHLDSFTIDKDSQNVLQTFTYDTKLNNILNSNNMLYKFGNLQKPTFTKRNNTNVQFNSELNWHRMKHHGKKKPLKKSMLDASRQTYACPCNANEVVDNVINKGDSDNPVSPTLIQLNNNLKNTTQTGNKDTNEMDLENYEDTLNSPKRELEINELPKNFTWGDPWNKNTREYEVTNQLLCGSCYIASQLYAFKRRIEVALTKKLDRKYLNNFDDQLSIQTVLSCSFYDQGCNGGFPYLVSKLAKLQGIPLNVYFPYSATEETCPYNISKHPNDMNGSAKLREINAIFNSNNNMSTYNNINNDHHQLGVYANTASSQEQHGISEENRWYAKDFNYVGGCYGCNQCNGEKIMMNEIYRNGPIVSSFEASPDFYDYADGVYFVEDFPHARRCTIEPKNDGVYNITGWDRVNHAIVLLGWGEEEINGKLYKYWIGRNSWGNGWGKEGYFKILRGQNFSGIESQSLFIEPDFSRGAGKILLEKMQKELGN
Design: species or system P. falciparum D10 trophozoite lysates; single well
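Note: 30 min substrate incubation versus DMSO and 10 µM JCP410 controls.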

Row | SMILES | % Inhibition @ 10 uM
1 | O=C1NCCCc2cc(Cl)sc21 | 1.64%
2 | CCc1ccc(CNC(=O)CN(C)c2nnc(-n3cccc3)s2)cc1 | -2.25%
3 | Nc1nonc1-n1nnc(C(=O)O)c1-c1ccccc1 | 1.62%
4 | CC1Oc2ccccc2C=C1/C=C1\SC(N2CCOCC2)=NC1=O (stereo not shown) | -1.63%
5 | Cc1ccc(C23CC4CC(CC(C(=O)NC(C)(C)CO)(C4)C2)C3)cc1 | 3.65%
6 | CC(=O)Nc1ccc(NC(=O)CN(c2ccc(Cl)cc2)S(C)(=O)=O)cc1 | -9.02%
7 | CCOC(=O)N1CCC(NC(=O)CCc2c(C)nc3cc(-c4ccc(Cl)cc4)nn3c2C)CC1 | 1.26%
8 | Cc1cc(OCCn2cc(C(=O)O)c3ccccc32)ccc1Cl | 3.93%
9 | CN(C)CCCC1(O)c2ccccc2CCc2ccccc21 | -2.63%
10 | Cc1ccccc1-c1nnc(CN2CCc3ccccc3C2)o1 | 2.44%
11 | CCN1C/C(=C\c2ccccc2)C(=O)/C(=C/c2ccccc2)C1 | 7.57%
12 | COc1ccc2c(CNCCc3ccccc3)c(C(=O)O)n(Cc3ccc(F)cc3Cl)c2c1 | 6.19%
13 | O=C(c1cc(S(=O)(=O)N2CCCCC2)c[nH]1)N1CCN(CCOc2ccc(Cl)cc2)CC1 | -2.22%
14 | COc1ccc(S(=O)(=O)Nc2cnn(Cc3c(F)cccc3Cl)c2)cc1 | 6.37%
15 | CCOC(=O)N1CCC(NC(=O)c2cnn(-c3ccccc3)c2-n2cccc2)CC1 | -3.35%
16 | O=C(CCN1C(=O)c2ccccc2C1=O)Nc1cccc(Cl)c1 | -0.366%
17 | COc1cccc2c1OC(CCSC)N1N=C(c3cc(C)ccc3O)CC21 (stereo not shown) | -1.68%
18 | CSC1=C(C#N)C(c2ccccc2Cl)CC(=O)N1 (stereo not shown) | 3.96%
19 | CC1=C(C(=O)Nc2ccc(C)cn2)C(c2ccc(Br)cc2)C2=C(O)CC(C)(C)CC2=N1 (stereo not shown) | 2.36%
20 | O=C(CCCN1C(=O)C(c2ccccc2)Oc2cccnc21)NCCc1cccs1 (stereo not shown) | -0.995%
21 | COCCCNC(=O)CSc1nc2c(sc3ccccc32)c(=O)n1Cc1ccccc1Cl | 1.41%
22 | COc1cccc(CNC(=O)c2cc3oc4ccccc4c3n2C)c1 | 1.38%
23 | O=S(=O)(c1cccc2cccnc12)N1CCCCC1 | -3.77%
24 | COc1ccc(-c2cc3c(=O)n(CC(=O)NCCC4=CCCCC4)ncn3n2)cc1 | -6.58%
25 | CCC(Sc1nc2ccncc2[nH]1)C(=O)NCCc1ccccc1 (stereo not shown) | -0.637%

Row | SMILES | % Inhibition @ 10 uM
26 | O=C(/C=C/c1ccccc1Cl)Nc1ccc(Cl)cc1 | 2.94%
27 | CC(C)Cn1c(=O)c2sccc2n2c(CCCC(=O)N3CC=C(c4ccccc4)CC3)nnc12 | -1.31%
28 | NC(=O)c1cc(-c2csc(N)n2)ccc1O | 4.42%
29 | COc1ccc(CN2CCN(S(C)(=O)=O)CC2)c(OC)c1OC | -1.2%
30 | Oc1nnc(SCc2cccc3ccccc23)c(O)n1 | -2.6%
31 | COc1ccc(C2NC(S)=NC3=C2CCc2ccc(OC)cc23)cc1 (stereo not shown) | 1.42%
32 | O=C(Cn1nc(C(F)(F)F)cc1C1CC1)Nc1cccc(F)c1 | 3.24%
33 | CC(Cc1ccccc1F)N(CCO)Cc1ccccc1 (stereo not shown) | -1.75%
34 | Cc1ccc(S(=O)(=O)N2CCC(C(=O)N3CCC(C(=O)NC4CCCC4)CC3)CC2)cc1 | 0.387%
35 | Cn1c(=O)c2c(ncn2CC(=O)Nc2ccc(Cl)cc2C(=O)c2ccccc2)n(C)c1=O | 4.49%
36 | O=C(O)c1cccc2c1NC(C(=O)O)C1CC=CC21 (stereo not shown) | 65.6%
37 | CC1=CC(C)(C)N(CC(=O)c2ccccc2)c2ccc(C)cc21 | 0.912%
38 | Cc1cc(C)n2ncc(C(=O)O)c2n1 | -2.2%
39 | CCC1CCCCN1C(=O)c1c(OC)cccc1OC (stereo not shown) | 5.42%
40 | Cc1cc(CO)c(C)n1-c1ccc(Cl)c(Cl)c1 | -2.87%
41 | O=C(Cn1ncn2c(cc3sccc32)c1=O)NCCc1ccc(Cl)cc1 | -1.58%
42 | COc1ccc(NC(=O)Cc2cccs2)c(OC)c1 | -9.24%
43 | O=C(CNS(=O)(=O)c1ccccc1)N1CCN(C(c2ccccc2)c2ccccc2)CC1 | -8.92%
44 | COc1ccc(NC(=O)/C(=C/c2cccs2)NC(=O)c2ccc(C)c(C)c2)cc1 | 2.26%
45 | Cc1c(CN2CCN(c3ncccn3)CC2)c(=O)n(-c2ccccc2)n1C | 3.48%
46 | Cc1c(C(c2cc(Cl)cc([N+](=O)[O-])c2O)c2c(C)n(C)n(-c3ccccc3)c2=O)c(=O)n(-c2ccccc2)n1C | 1.87%
47 | CCN1C(=O)c2ccc(-c3nc4cc(Cl)ccc4o3)cc2C1=O | -0.598%
48 | Cn1c(=O)c2c(-c3ccc(Cl)cc3)n(-c3ccc(O)cc3)cc2n(C)c1=O | -4.95%
49 | COc1ccc(Cl)cc1N1C(=O)C(Cl)=C(Nc2cccc(O)c2)C1=O | 3.96%
50 | O=C(Nc1ccccc1)Nc1ccc(S(=O)(=O)NC2CCCCC2)cc1 | 1.25%

Row | SMILES | % Inhibition @ 10 uM
51 | Cc1cccc(NC(=O)NC(=O)c2ccc3ccccc3c2)c1 | 5.73%
52 | CN(Cc1ccccc1)C(=O)Nc1ccccc1 | -0.351%
53 | COc1cc(/C=C2\Sc3ccccc3C2=O)c([N+](=O)[O-])cc1OC | 0.634%
54 | CC(C)OP(=O)(OC(C)C)C(OC(N)=O)c1ccc(Br)cc1 (stereo not shown) | 5.48%
55 | Cc1nc2ccccc2nc1N1CCOCC1 | -0.711%
56 | COc1cc(C2Oc3ccccc3C3CC(c4ccccc4O)=NN32)cc(OC)c1OC (stereo not shown) | -5.36%
57 | CN(C(=O)Cn1cc(S(=O)(=O)Cc2ccccc2F)c2ccccc21)C1CCCCC1 | -1.6%
58 | Cc1ccc(OCc2nnc(-c3ccccc3Cl)o2)cc1 | 3.74%
59 | Cc1cc(C)c2c(-n3cccc3)c(C(=O)N3CCN(C)CC3)sc2n1 | -4.68%
60 | CCOc1ccc(NC2=NS(=O)(=O)c3ccccc32)cc1 | 5.68%
61 | CCCc1nn(-c2ccc(F)cc2)c(O)c1/C=N/CCc1ccc(S(N)(=O)=O)cc1 | -4.91%
62 | Nc1c(NCCN2CCCCC2)c2ccccc2oc1=O | -8.15%
63 | COc1cc(C(CC(=O)NCCN2CCOCC2)N2Cc3ccccc3C2=O)cc(OC)c1OC (stereo not shown) | -6.53%
64 | Cc1ccccc1C1C(C#N)=C(N)Oc2ncnc(O)c21 (stereo not shown) | -0.994%
65 | NC1=NC(c2ccccc2)n2c(nc3ccccc32)N1 (stereo not shown) | -3.13%
66 | COc1ccccc1Nc1nc(-c2ccccc2)cs1 | 7.62% and -0.771%
67 | COc1cccc(C2CC(C(F)(F)F)n3ncc(C(=O)NCC4CCCO4)c3N2)c1 (stereo not shown) | -3.53%
68 | COc1ccc(/C=C/c2nc(C#N)c(N3CC(C)CC(C)C3)o2)cc1OC (stereo not shown) | 2.54%
69 | COc1ccc(-c2cc(C(F)F)n3ncc(C(=O)Nc4ccc5c(c4)OCCO5)c3n2)cc1 | -14.8%
70 | CCOCCCNC(=O)c1nnc(Cc2ccc(Cl)cc2Cl)o1 | -1.14%
71 | Cn1c(N2CCCCCC2)nc2c1c(=O)[nH]c(=O)n2C | -1.2%
72 | O=S(=O)(NCCOc1ccccc1)c1ccc2oc3cc(-n4cnnn4)ccc3c2c1 | 3.68%
73 | CCN(CC)C(=O)c1cc2c(O)nc3ccccc3c2s1 | 1.23%
74 | Cc1ccc(S(=O)(=O)N(CC(=O)N2CCN(c3ccc(F)cc3)CC2)Cc2ccccc2)cc1 | -4.93%
75 | COc1ccc(-c2nnc(-c3ccc(OC)c(OC)c3)o2)cc1OC | 2.41%

Row | SMILES | % Inhibition @ 10 uM
76 | Cc1nc2ccc(S(=O)(=O)NCC(=O)N(C)Cc3ccco3)cc2s1 | -2.45%
77 | CCOC(=O)N1CCN(C(=O)c2cc(-c3ccc(F)cc3)[nH]c2C)CC1 | -8.34%
78 | Cc1cc(C)c(C#N)c(SCc2ccc(Cl)nc2)n1 | -6.51%
79 | CC(C)(C)OC(=O)N1CCC(c2nc(O)c3nnn(Cc4ccccc4Cl)c3n2)CC1 | -1.15%
80 | CCNc1nc(NCC)nc(Oc2ccc(C(=O)OCC)cc2)n1 | -4.7%
81 | CCOc1cc(C)c(C)cc1S(=O)(=O)n1ccnc1C | 0.245%
82 | CN(C)c1ccc(CN2CCN(c3ccccc3F)CC2)cc1 | -2.7%
83 | CCc1ccc(C(=O)c2cn(CC(N)=O)c3nc(C)ccc3c2=O)cc1 | -1.34%
84 | CCOc1cc(/C=C2\SC(=O)N(C)C2=O)c(Br)cc1O | 0.484%
85 | COc1ccccc1N(CC(=O)N(C)Cc1ccccc1)S(=O)(=O)c1ccccc1 | -3.78%
86 | CC(C)Nc1nc(Cl)nc(NC(C)C)n1 | 2.22%
87 | CC(=O)Nc1ccc(N(C)C(C)(C)C)cc1 | -6.41%
88 | O=C(COc1ccc(Cl)cc1)NCCCn1ccnc1 | 3.56%
89 | CCN1CCN(CC(O)COc2ccc(C)c(C)c2)CC1 (stereo not shown) | -4.16%
90 | CCOc1ccc2ncc(S(=O)(=O)c3ccc(C(C)(C)C)cc3)c(O)c2c1 | -5.25%
91 | CCn1ncc(C2=NOC(C(=O)Nc3cccnc3Cl)C2)c1C (stereo not shown) | -1.37%
92 | CC1=C(C(=O)Nc2cccnc2)C(c2ccccn2)n2nnnc2N1 (stereo not shown) | 6.7%
93 | CCOC(=O)CN1CC1C(=O)OCC (stereo not shown) | -5.2%
94 | COc1ccc(-c2cc(C(F)(F)F)n3ncc(C(=O)NC(C)c4ccccc4)c3n2)cc1OC (stereo not shown) | -3.33%
95 | Cc1ccc2nc3c(O)n(CC(=O)N4CCC5(CC4)OCCO5)ncc-3c2c1 | -2.15%
96 | FC(F)(F)c1ccccc1CN1CCN(c2ccccc2)CC1 | -0.192%
97 | C=CCNC(=O)/C(=C/c1ccc(OC)cc1)NC(=O)c1cccc(Br)c1 | -2.64%
98 | CC(C)c1ccc(OCC(O)CN2CCOCC2)cc1 (stereo not shown) | -5.71%
99 | O=C1NC(=O)N(c2cccc(Cl)c2)C(=O)/C1=C\Nc1ccccc1C(=O)O | -2.77%
100 | Cc1nn(CC(=O)NCCc2cccs2)c(=O)c2nn(-c3ccccc3)c(C)c12 | 0.58%
